Experimental data published in PubChem BioAssay AID2451 (National Center for Advancing Translational Sciences (NCATS), 2010).
In all, about 290,000 compounds went through this assay and about 2,100 (0.72%) were called active. The inconclusive results got no clear call from the source; some entries with a clear call stand among them for comparison. Calls follow the shape of the dose curve; as a rule, active = well fitted inhibition curve with a large enough effect; inconclusive = small, poorly fitted or top-dose-only effect, or effect the other way; inactive = flat fitted curve, though single readings scatter. Potencies of inconclusive entries are doubtful fits and often do not repeat.

molecular target: Fructose-bisphosphate aldolase (Giardia intestinalis (strain ATCC 50803 / WB clone C6)) (UniProt A8B2U2); experiment: qHTS Assay for Inhibitors of Fructose-1,6-bisphosphate Aldolase from Giardia Lamblia; settings: purified Giardia FBPA; activity, negative = inhibition: at 59.6 µM (top of the series) unless noted; also: nearly all actives have a fitted effect of over 55% in size
Sequence of UniProt A8B2U2 (A8B2U2 whole entry, looked up): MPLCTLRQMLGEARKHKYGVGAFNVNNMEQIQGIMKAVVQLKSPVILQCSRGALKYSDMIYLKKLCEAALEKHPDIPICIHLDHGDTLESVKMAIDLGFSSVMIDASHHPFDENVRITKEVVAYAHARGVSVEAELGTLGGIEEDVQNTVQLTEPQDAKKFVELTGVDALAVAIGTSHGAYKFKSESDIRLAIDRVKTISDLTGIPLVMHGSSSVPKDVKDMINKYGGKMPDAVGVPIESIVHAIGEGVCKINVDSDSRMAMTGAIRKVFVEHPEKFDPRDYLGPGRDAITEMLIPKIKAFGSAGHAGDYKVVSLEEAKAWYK
From the text: Assay Provider: Osnat Herzberg, University of Maryland
The objective of this project is to obtain compounds that inhibit Giardia lamblia growth. G. lamblia is a human pathogen which afflicts impoverished nations; it is the most common cause of outbreaks of diarrhea in the United States. During the course of our study of potential drug targets in Giardia, we have identified the Class II (Zn2+ functions in electrophilic catalysis) fructose-1,6-bisphosphate aldolase (FBPA) as an excellent candidate for drug targeting. FBPA is a key glycolytic pathway enzyme, essential for G. lamblia survival. The human FBPA belongs to the Class I aldolases, which have a different substrate binding site structure and a radically different catalytic mechanism (employing a lysine-Schiff base intermediate). Therefore, affinity-based or mechanism-based inhibitors of the Giardia FBPA are expected not to interfere with the catalytic function of the human FBPA.
A glyceraldehyde-3-phosphate dehydrogenase/triose phosphate isomerase/NAD/arsenate coupled assay was adapted to the 1536-well HTP format for use in the primary screen. This was done by coupling it to a diaphorase/resazurin/resorufin reaction that can be monitored by fluorescence (excitation, 544 nm; emission, 590 nm). Compounds identified in this screen will be further evaluated by coupling the glycerol-3-phosphate/triose phosphate isomerase/NADH assay to a phenazine methosulfate/tetranitroblue tetrazolium color reaction. False positives due to the dehydrogenases and diaphorase inhibition will be eliminated, and selectivity assay will triage inhibitors of mammalian triose phosphate isomerase and the Class I FBPA. G. lamblia FBPA inhibitors identified by the in vitro analyses will be examined for growth inhibition of Giardia trophozoites, and for cytotoxicity in human cells.
Step,Parameter,Value,Description
1,Enzyme reagent,2 uL,40 nM FBPA
2,Compound,23 nL,3.68 nM-57.5 uM final concentration
3,Time,10 min,RT Incubation
4,Substrate/detection Reagent,2 uL,Substrate + enzyme coupling system + AmpLite Red kit
5,Time,20 min,RT Incubation
6,Detector,525 nm/598 nm (Fluorescence),ViewLux Fluorescence Read (Read 1)
1,Medium-binding black solid-bottom Kalypsys plates. FRD or Kalypsys dispenser, 2 uL of FBPA enzyme. Bottle kept at 4C.
2,Compound Library (10 mM ,1:5 dilution). Pin-transferred for a [final] range of 3.68 nM-57.5 uM.
4,FRD or Kalypsys dispenser, 2 uL of reaction mixture. Bottle kept at 4C and covered in foil to protect from light.
6,ViewLux Protocol 1194; Excitation filter wheel A (525/20 Pol; BODIPY TMR FP), Emission filter wheel B (598/25 S; BODIPY TMR FP S).
Keywords: Fructose-bisphosphate aldolase, FBPA , Giardia lamblia , Giardia, HTS, Inhibitors
% is scaled to controls: 0 for no effect and ±100 for the full control effect; potency is read from the fitted curve at half-maximal effect; tags tell the direction and shape of the fitted curve.

Compound | Potency | activity, negative = inhibition
CC1CC(C)CN(CC(=O)N2c3ccccc3CCc3ccccc32)C1 (centres undefined) | inconclusive: 15.8 µM [inhibitor, partial curve] | 
CC(C)c1ccccc1NC(=O)CNCCc1ccc(C(F)(F)F)cc1 | inconclusive: 19.9 µM [inhibitor, partial curve] | 
O=C(O)c1cccc(-c2ccc(/C=N/Nc3nn[nH]n3)o2)c1 | active: 15.8 µM | 
C=CCN1C(=O)/C(=C/c2cc(C)n(-c3cccnc3)c2C)C(=O)NC1=S | inconclusive: 19.9 µM [inhibitor, partial curve] | 
N#Cc1c(N)nc(SCC(=O)OCc2ccccc2)c(C#N)c1-c1ccco1 |  | inactive: -10.8%
COc1ccc(NC(=O)CSc2nnc(-c3ccco3)n2C)cc1 |  | inactive: 0.651%
COc1ccc(N=Cc2c(O)n(C)c(=O)n(C)c2=O)cc1 |  | inactive: 3.27%
CCOc1cc2c3c(c1)C1(C(=O)N3C(C)(C)CC2C)C(C#N)=C(N)N2C(=C1C#N)Nc1ccccc12 (centres undefined) | inconclusive: 12.6 µM [inhibitor, partial curve] | 
CCc1cc(C(=O)NNC(=S)NCC2CCCO2)cs1 (centres undefined) |  | inactive: 3.43%
COc1ccc(OC)c(-n2c(CN3CCC(C(N)=O)CC3)nc3ccccc3c2=O)c1 | inconclusive: 19.9 µM [inhibitor, single point] | 
CC(C)C1N=C2c3ccccc3N=C(SCC(=O)c3ccc(O)c(O)c3)N2C1=O (centres undefined) | inconclusive: 3.54 µM [inhibitor, single point] | 
O=C(/C=C/c1ccco1)NC(=S)Nc1ccccc1 | inconclusive: 22.4 µM [inhibitor, partial curve] | 
NNc1nc(-c2ccccc2Cl)nc2sc3c(c12)CCCC3 |  | inactive: -19.8%
CCC(C)NC(=O)C1CCCN(S(=O)(=O)c2ccc3c(c2)CC(C)N3C(C)=O)C1 (centres undefined) |  | inactive: -2.8%
Cn1nnnc1SCC(=O)N1CCN(c2cccc(Cl)c2)CC1 |  | inactive: 3.37%
Cc1ccc(O)c(/C=N/NC(=O)CN2CCCC2)c1 | inconclusive: 7.94 µM [inhibitor, partial curve] | 
CN(C)CCn1c(NCc2ccc3c(c2)OCO3)nc2ccccc21 | active: 28.2 µM | 
COc1cccc(CNCC(=O)Nc2ccc(N3CCOCC3)cc2)c1 | inconclusive: 17.7 µM [inhibitor, partial curve] | 
Cc1ccc(NC2=C(N3CCCCC3)C(=O)c3ccccc3C2=O)cc1 | inconclusive: 0.397 µM [inhibitor, full curve] | 
Cc1c(NS(C)(=O)=O)cccc1-c1nc2cccnc2s1 |  | inactive: 2.09%
Fc1ccc(C2=CC(c3ccco3)n3ncnc3N2)cc1 (centres undefined) |  | inactive: -16.3%
CNC(=S)N/N=C/c1ccc(N2CCOCC2)s1 | active: 12.6 µM | 
COC(=O)c1c[nH]n2c(=O)cc(C)nc12 | inconclusive: 8.89 µM [inhibitor, full curve, poor fit] | 
CCOC(=O)C(Sc1nn(C)c(=S)s1)C(C)=O (centres undefined) | inconclusive: 15.8 µM [inhibitor, single point] | 
CCn1c(SCC(=O)NC2CCCC2)nnc1C(C)C |  | inactive: -3.07%

Compound | Potency | activity, negative = inhibition
Cc1cccc(NC(=O)c2nc[nH]c2C(=O)N[C@@H](CC(C)C)C(=O)OC(C)(C)C)c1 | inconclusive: 44.6 µM [inhibitor, single point] | 
C=CCSc1nnc2c(n1)OC(c1ccco1)Nc1ccccc1-2 (centres undefined) | inconclusive: 19.9 µM [inhibitor, partial curve] | 
COc1ccc2c(c1OC)C(=O)N(c1nc(SC)n[nH]1)C2=O | active: 15.8 µM | 
O=C(NCc1ccon1)C1CCC(=O)N(CCc2cccc(F)c2)C1 (centres undefined) |  | inactive: -1.77%
c1ccc(C2=Nc3ccccc3SC2c2nc3ccccc3[nH]2)cc1 (centres undefined) | inconclusive: 17.8 µM [inhibitor, partial curve] | 
COc1ccc(S(=O)(=O)/N=C2/NC(=O)/C(=C/c3ccco3)S2)cc1 |  | inactive: 10.4%
CS(=O)(=O)c1ccc(-c2nnn(CC(=O)N3CCCCC3)n2)cc1 |  | inactive: 10.2%
Cc1ccc(CN2CCN(c3ccccn3)CC2)s1 | inconclusive: 15.8 µM [inhibitor, partial curve] | 
CCOC(=O)N1CCC(N(CCN(C)C)C(=S)Nc2cc(Cl)ccc2C)CC1 | inconclusive: 31.5 µM [inhibitor, single point] | 
COc1cc(OC)nc(NC(=O)CCl)n1 | inconclusive: 28.2 µM [inhibitor, single point] | 
CC(C)(C)c1cc(CN2CCN(CCC#N)CC2)cc(C(C)(C)C)c1O | inconclusive: 7.92 µM [activator, partial curve] | 
CN(CC1CCCCO1)C(=O)c1cc(COc2ccc(F)cc2Cl)on1 (centres undefined) |  | inactive: 7.92%
CC(=O)NS(=O)(=O)c1ccc(NC(=O)c2cc(-c3ccc(C)c(C)c3)nc3ccccc23)cc1 | inconclusive: 15.8 µM [inhibitor, single point] | 
Cn1c(-c2ccco2)nc2cc3ccccc3cc21 | inconclusive: 17.7 µM [inhibitor, single point] | 
COc1ccc(C2NC(=O)NC3=C2CCc2ccccc23)cc1 (centres undefined) | inconclusive: 15.8 µM [inhibitor, partial curve] | 
CCOC(=O)C1(Cc2ccccc2)CCCN(S(=O)(=O)N(C)C)C1 (centres undefined) | inconclusive: 6.31 µM [inhibitor, single point] | 
CC(=O)C1=C(C)NC(SCSc2ccccc2)=C(C#N)C1c1cccnc1 (centres undefined) | inconclusive: 15.8 µM [inhibitor, partial curve] | 
Cc1ccc(Cn2c(C3CCCN3c3nc(C)cs3)nc3cc(C(F)(F)F)ccc32)cc1 (centres undefined) | active: 28.2 µM | 
O=C(N=Nc1c(O)[nH]c(=O)[nH]c1=O)C1COc2cc3ccccc3cc2O1 (centres undefined) | inconclusive: 7.06 µM [inhibitor, full curve] | 
O=C(O)c1cc(-c2ccco2)[nH]n1 | inconclusive: 17.7 µM [inhibitor, single point] | 
COc1ccccc1C(=O)NCC(=O)NNc1ncnc(N)c1[N+](=O)[O-] | inconclusive: 7.92 µM [inhibitor, partial curve] | 
CCCCOc1c(Br)cc(CNCCCN2CCOCC2)cc1OC | active: 20 µM | 
Cc1[nH][nH]c(=O)c1C(c1ccc(-c2ccccc2C(=O)O)o1)c1c(C)[nH][nH]c1=O | active: 7.92 µM | 
C=CCNC(=S)/C(=C(\[O-])c1ccc(Cl)cc1)[n+]1ccccc1 | active: 12.6 µM | 
Cc1ccc(C)c(NNC(N)=S)c1 | inconclusive: 15.8 µM [inhibitor, partial curve] | 

Compound | Potency | activity, negative = inhibition
Cc1cc(C)c(NS(=O)(=O)c2cccc3cccnc23)c(C)c1 | inconclusive: 15.8 µM [inhibitor, single point] | 
[N-]=[N+]=CC(=O)CC(c1ccccc1)N1C(=O)c2ccccc2C1=O (centres undefined) | inconclusive: 22.3 µM [inhibitor, partial curve] | 
Cc1ccc(OCC(=O)N2CCN(C3CCC(c4ccccc4)CC3)CC2)cc1 (centres undefined) | inconclusive: 17.7 µM [inhibitor, partial curve] | 
CCc1ccc(OCC(=O)Nc2ccc3oc(=O)ccc3c2)cc1 |  | inactive: -8.14%
Cc1[nH][nH]c(=O)c1C(c1c(C)[nH][nH]c1=O)c1cn(Cc2ccc(Cl)c(Cl)c2)c2ccccc12 | inconclusive: 12.6 µM [inhibitor, partial curve] | 
O=C1CCCc2c1cc(C(=O)Nc1ccc(Br)cn1)c(=O)n2-c1ccccc1 | inconclusive: 15.8 µM [inhibitor, partial curve] | 
COc1ccccc1NC(=O)Cn1cnc2c(cnn2-c2ccccc2)c1=O |  | inactive: 3.97% [at 12.9 µM]
Oc1cc(O)c2c(c1)OC(c1cc(O)c(O)c(O)c1)C(O)C2 (centres undefined) | inconclusive: 14.1 µM [inhibitor, partial curve] | 
O=C(CN1CCN(Cc2ccccc2)CC1)N/N=C/c1ccc(Br)s1 |  | inactive: 6.82%
N#Cc1c(-c2ccccc2)cc(-c2ccco2)c(C#N)c1N | inconclusive: 12.6 µM [inhibitor, partial curve] | 
CC(C)CN1CCNC(=O)C1CC(=O)NCCc1cnn(-c2ccccc2)c1 (centres undefined) |  | inactive: -2.57%
OCCSc1nnc(Nc2ccccc2)s1 |  | inactive: 0.13%
COC(=O)/C=C/c1cnc[nH]1 | inconclusive: 35.5 µM [inhibitor, single point] | 
Cc1cc(C(=O)N/N=C/c2ccc(O)c(O)c2O)c(C)n1-c1ccccc1 | active: 15.8 µM | 
Cc1cc(C)n2ncc(/C(N)=N/OC(=O)Nc3ccc(Cl)cc3)c2n1 | inconclusive: 7.06 µM [inhibitor, partial curve] | 
CC(=O)c1c(C)[nH]c(C2=NNC(=NC(C)(C)C)SC2)c1C | inconclusive: 15.8 µM [inhibitor, partial curve] | 
O=C/C(=C\Nc1ccc(Cl)cn1)c1nc2cc(Cl)ccc2o1 | inconclusive: 17.8 µM [inhibitor, partial curve] | 
CC(=O)Nc1cccc(NC(=O)CSc2ccc(-c3ccccn3)nn2)c1 | inconclusive: 22.3 µM [inhibitor, single point] | 
Cn1c(N)c(C(=O)COC(=O)C2(c3ccccc3F)CCCC2)c(=O)n(C)c1=O | inconclusive: 19.9 µM [inhibitor, partial curve] | 
COc1cc(OC)c2c(-c3cccc(-c4cccc(C)c4)c3)cc(=O)oc2c1 |  | inactive: -5.29% [at 89.2 µM]
COc1ccc(C2CC(=O)N3CN(c4ccc(C)c(Cl)c4)CSC3=C2C#N)cc1OC (centres undefined) | active: 5 µM | 
CCN1CCc2c(sc(NC(=S)NC(=O)c3ccco3)c2C(N)=O)C1 | inconclusive: 15.8 µM [inhibitor, single point] | 
COc1ccc(C)cc1NC(=O)CNCc1cccs1 | inconclusive: 17.8 µM [inhibitor, partial curve] | 
O=C(NC1CCN(Cc2ccccc2)CC1)c1cccc(Br)c1 |  | inactive: 5.11%
